Reference: PubChem BioAssay AID686971 (National Center for Advancing Translational Sciences (NCATS), 2013)
About 7,500 (2.1%) of roughly 360,000 compounds were called active. This list was built around the results that the source calls inconclusive (neither active nor inactive); the mix of calls is not that of the screen. Calls follow the shape of the dose curve; as a rule, active = well fitted cell-killing curve with a large enough effect; inconclusive = small, poorly fitted or top-dose-only effect, or effect the other way, or another doubt; inactive = no such curve, though single readings can be large or run the other way. Potencies of inconclusive entries are left out as doubtful fits.
Potency is read from the fitted curve at half-maximal effect; tags tell the direction and shape of the fitted curve.

Experiment: qHTS for induction of synthetic lethality in tumor cells producing 2HG: qHTS for the HT-1080-IDH1KD cell line
Conditions: HT-1080 IDH1 knockdown viability, ATP luminescence, 48 h; activity, negative = toxicity: at 46.1 µM (top of the series) unless noted
Text: Unbiased genomic sequencing for 22 glioma genomes found recurrent mutation of IDH1 on chromosome 2q33, a gene encoding the cytosolic isoform of IIDH1 associated with the tri-carboxylic acid cycle (TCA) that catalyzes the oxidative decarboxylation of isocitrate, yielding alpha-ketoglutarate and CO2 via NADP+ to NADPH conversion. Subsequent studies confirmed the recurrent IDH mutations in up to 70% of secondary gliomas and in 10% of AML cases. In addition, the somatic mutation of cancer-associated IDH1 is a point mutation resulting in various amino-acid substituents at Arginine132 (IDH1 R132), a key residue found in the enzyme's active site that when mutated, results in the loss-of-function in metabolizing isocitrate but confers a gain-of-function to produce the oncometabolite 2-hydroxyglutarate (2HG). This in effect defines IDH1 as an oncogene and provides an extraordinary opportunity to discover chemical probes against mutant IDH1 that may translate into much needed new therapies for glioma and AML patients.
This assay aims to perform a synthetic-lethal screen for chemical probes specific for 2HG-producing tumor cells using matched paired cell lines (1) HT-1080-NT fibrosarcoma cell line that overproduces 2HG and (2) HT-1080-IDH1KD cell line which has IDH1 expression knocked-down. Desirable compounds are toxic to the NT fibrosarcoma cell line but not to the IDH1KD cell line. The data in this AID corresponds to the results of the qHTS against the HT-1080 IDH1KD cell line.
[1] Dang L, Jin S, Su SM. IDH mutations in glioma and acute myeloid leukemia. Trends of Mol Med. 2010; 16(9): 387-97.
[2] Dang L et al. Cancer-associated IDH1 mutations produce 2-hydroxyglutarate. Nature. 2010; 465(7300):966.
Molecular Libraries Probe Production Centers Network [MLPCN]
NIH Chemical Genomics Center [NCGC]
Assay Submitter (PI): Lenny Dang Ph.D., Agios Pharmaceuticals
Suspensions of trypsinized HT-1080-IDH1KD cells were dispensed into white, tissue culture-treated, solid 1536-well plates at 5uL/well (750 cells/well final concentration) in RPMI medium supplemented with 5% FBS. Plates were incubated at 37 degrees C for 2 hours, after which 23 nL of compounds or DMSO were delivered to each well using a pin tool. Plates were then incubated at 37 degrees C for an additional 48 hours. CellTiter-Glo viability reagent (Promega) was dispensed into wells (2.5uL/well) and incubated at room temperature for 10 minutes. The plates were measured on a PerkinElmer ViewLux plate reader for luminescent signal (clear filter, 1 sec exp.). DMSO-treated control wells and media-only (no cells) control wells were used to normalize %Activity of identified toxic compounds; DMSO-treated wells corresponded to 0%Activity (100% viability), while media-only controls were used to normalize 100%Activity (0% viability). To minimize variability between cell lines, both HT-1080-NT and HT-1080-IDH1KD lines were dispensed and treated with identical compound series in single batches.
Concentration-response curves were fitted to the signals arising from the resulting luminescence. The concentration-effect curves were then classified based on curve quality (r2), response magnitude and degree of measured activity, and compounds were subsequently categorized based on their curve class.
For `N#Cc1c(SCc2c(Cl)cccc2Cl)nc(N)[nH]c1=S`, the Potency was “inactive”.
For `COc1ccc(S(=O)(=O)Nc2cccc(-c3ccc4nncn4n3)c2)cc1F`, the Potency was active: 2.31 µM.
For `O=C(Nc1ccccc1C(=O)Nc1ccccc1C(=O)O)c1ccccc1`, the Potency was inconclusive [cytotoxic, partial curve].
For `CC(OC(=O)Cc1n[nH]c(=O)c2ccccc12)C(=O)Nc1ccc(F)cc1` (stereo not drawn), the Potency was “inactive”.
In the case of `COc1ccc(-c2cc(-c3ccccc3)nc(N)n2)c(O)c1`, the Potency is reported as inconclusive [rising, full curve, poor fit].
In the case of `COc1ccc(CNC(=O)c2cccc(-c3ccc(C)c4ccccc34)n2)cc1`, the Potency is reported as inconclusive [cytotoxic, single point].
In the case of `COc1ccc(/C=N/NC(=O)c2ccc(CSc3nc(C)cc(C)n3)cc2)c(OC)c1OC`, the Potency is reported as inconclusive [cytotoxic, single point].
With `COc1cccc(N(C(=O)CNC(=O)c2ccco2)C(C(=O)NC2CCCC2)c2cccnc2)c1` (stereo not drawn) the Potency was “inactive”.
In the case of `O=C(Oc1ccnc2cc(Cl)ccc12)N1CCCCCC1`, the Potency is reported as “inactive”.
In the case of `CCOC(=O)C1=CN(CC)S(=O)(=O)NC1CCc1ccccc1` (stereo not drawn), the Potency is reported as “inactive”.
For `CCc1cc(-c2n[nH]c(C)c2-c2nc3ccccc3n2C)c(O)c(CN2CCN(C)CC2)c1O`, the Potency was inconclusive [cytotoxic, single point].
In the case of `COc1ccccc1N1CCN(C(=O)c2sc3nc(C)nc(N4CCN(c5ccccn5)CC4)c3c2C)CC1`, the activity, negative = toxicity is reported as inconclusive: -35.8% [cytotoxic].
For `O=C(/C=C/c1ccccc1Cl)N1CCOCC1`, the Potency was “inactive”.
For `CNc1ncc(C(=O)c2ccc(Br)cc2)s1`, the Potency was “inactive”.
For `OC1(c2ccc(Cl)cc2)CN(c2ccccc2)C2=[N+]1CCS2` (stereo not drawn), the Potency was inconclusive [cytotoxic, single point].
In the case of `CCOc1cccc(-c2nn(-c3ccccc3)cc2/C=C(/C#N)C(=O)NCCCn2ccnc2)c1`, the Potency is reported as inconclusive [cytotoxic, single point].
For `CC(C)(C)C(=O)Nc1cc(NC(=O)C(C)(C)C)cc(C(=O)NNC(=O)c2ccncc2)c1`, the Potency was “inactive”.
With `CN1/C(=C/c2cc[n+](C)c3ccccc23)C=Cc2ccccc21` the Potency was active: 5.8 µM.
With `CCOC(=O)[C@]12CCC=C1N(Cc1ccc(Cl)cc1Cl)C(=O)[C@H](CC(=O)NCc1ccccc1)C2` the Potency was inconclusive [cytotoxic, single point].
In the case of `COCc1cc(C)nc(OCC(=O)N/N=C/c2cc(C)n(-c3c(C)cccc3C)c2C)c1C#N`, the Potency is reported as inconclusive [cytotoxic, single point].
In the case of `COc1ccc(CCNC(=O)c2ccc(Cl)c(S(=O)(=O)N3CCCCCC3)c2)cc1`, the Potency is reported as inconclusive [cytotoxic, single point].
For `COc1ccc(CCNC(=O)c2cc(C(C)C)on2)cc1OC`, the Potency was “inactive”.
In the case of `O=C1NC[C@H](Cc2ccccc2)N(C[C@H]2CCCN2C[C@H](Cc2ccccc2)N2C[C@H](Cc3ccccc3)N(CC3CCCCC3)C(=O)C2=O)C1=O`, the Potency is reported as inconclusive [cytotoxic, single point].
With `Cn1c(CNC(=O)c2ccco2)nnc1SCC(=O)N1CCN(c2ccccc2F)CC1` the Potency was “inactive”.
For `Cc1ccc(N/C(N)=N/c2nc(CSc3nnc(C)s3)cc(=O)[nH]2)c(C)c1`, the Potency was active: 4.11 µM.
With `CCc1cc(C(N)=O)c(NC(=O)c2ccc(OC)cc2)s1` the Potency was inconclusive [cytotoxic, single point].
For `N=c1ccn2c(n1)OC1C(O)C(CO)OC12` (stereo not drawn), the activity, negative = toxicity was inconclusive: -28.1% [cytotoxic].
With `CCCCC(=O)NNC(=S)NC(=O)C(c1ccccc1)c1ccccc1` the Potency was inconclusive [cytotoxic, full curve].
In the case of `CCOC(=O)CSc1nc2ccccc2n1C(=O)OCC`, the Potency is reported as “inactive”.
With `O=C(N/N=C/c1ccc(O)cc1)c1[nH]c2ccc(Br)cc2c1-c1ccccc1` the Potency was active: 4.11 µM.
In the case of `COc1cc(C(=O)Nc2ccc3c(c2)C(=O)c2ccccc2C3=O)cc(OC)c1OC`, the Potency is reported as “inactive”.
In the case of `O=C(NC(=S)Nc1ncc(Br)cc1Br)c1cncc(Br)c1`, the Potency is reported as inconclusive [cytotoxic, single point].
With `O=C(COC(=O)[C@@H]1CC(O)CN1S(=O)(=O)c1ccccc1[N+](=O)[O-])c1ccccc1` (stereo partly drawn) the Potency was “inactive”.
In the case of `CSc1ccccc1C(=O)Nc1c(C)cccc1C`, the Potency is reported as “inactive”.
With `Cc1ccc(Cn2c(=N)c(C(=O)NC3CCCC3)cc3c(=O)n4ccccc4nc32)cc1` the Potency was “inactive”.
In the case of `CCC(NS(=O)(=O)c1ccc2c(c1)Cc1cc(S(=O)(=O)NC(CC)C(=O)O)ccc1-2)C(=O)O` (stereo not drawn), the Potency is reported as “inactive”.
For `O=C(CCl)Nc1ccc2c(c1)OCO2`, the Potency was active: 18.4 µM.
For `COc1cccc(Cn2c3ccc(NC(=O)CCc4ccc(F)cc4)cc3c(=O)n2C)c1`, the Potency was active: 4.11 µM.
With `CC(C)(C)C1CCC2(CC1)C(C#N)=C(SCC(=O)Nc1ccccc1)NC(=O)C2C#N` (stereo not drawn) the Potency was inconclusive [cytotoxic, partial curve].
In the case of `Cc1ccc(C)c(NS(=O)(=O)c2cc(C(=O)NCCSC3CCCCC3)ccc2C)c1`, the Potency is reported as inconclusive [cytotoxic, single point].
With `O=C(CCc1ccc(O)cc1)NN=Cc1ccc2c(c1)OCO2` the Potency was active: 5.8 µM.
For `Cc1nc(-c2ccc(NC(=O)c3ccccc3)cc2)cs1`, the Potency was inconclusive [cytotoxic, partial curve].
In the case of `CN(C)CCN(C(=O)c1ccc2c(c1)OCCO2)c1nc2ccc(Cl)cc2s1`, the Potency is reported as inconclusive [cytotoxic, single point].
With `COc1ccc(CCn2c(-n3nc(C)cc3C)nc3c2c(=O)[nH]c(=O)n3C)cc1` the Potency was inconclusive [cytotoxic, full curve].
For `CCOc1cccc(NC(=O)C(Cc2cccs2)c2nn[nH]n2)c1` (stereo not drawn), the activity, negative = toxicity was inconclusive: -0.384% [cytotoxic].
For `CC(C)OC(=O)/C=C1\C[C@@H](c2ccccc2C(F)(F)F)O[C@@H](c2ccccc2C(F)(F)F)O1`, the Potency was “inactive”.
With `Cc1ccc(NC(=O)CSc2ncc3ccccn23)cc1C` the Potency was “inactive”.
In the case of `O=C(c1ccc2nsnc2c1)N1CCN(c2ccc([N+](=O)[O-])cc2)CC1`, the Potency is reported as “inactive”.
